Results reported in paper PMC3252639 (The Biochemical journal, 2011).

Target: the molecule itself
Assay: co-sedimentation

B1: wild-type connexin 43 (natural protein)
chain: not shown
For B1, the “stoichiometry N” value was 6.
